Over roughly 2,300 sequences, “median log2 fold change of GCK-ALFA target abundance (FLAG IP / Myc IP barcode read proportion)” has its median near 0.095; the lowest 2% begin near -0.47. Some of the results follow.
B1: LC3A_147_399 (protein)
chain: ALVEVDIDLLTNGDREVVEELVERLRETAEALGARVEVEVELEEEPGELYSRITVRAEVSDDPEEIARLEDALLDTIDEFLEENRDKVLGALISVDVIRR
B2: LC3A_free_8_2547 (protein)
chain: DVEAFAAALSALLDKLEEEIRKEAKKLGVDRLDILDLELLVGETIAEALEAAEEGPEAALEAVREGLEEVIKEAKKISEELAKIVEKKSEEVLEEAEKLL
B3: LC3A_free_8_2451 (protein)
chain: KAQEATDVALEKLEELEEELVKKAKELGLDELDILELELEIGAAIIDIIEASDKSLEEIIKVAEESMKEIIELAKELGEELAKLAEEKSEELMEELEELK
B4: LC3A_3_1513 (protein)
chain: MEELIKETLELLKEAGKSEEVIKAAREALEALKEKGYEEALKVFAEELKKLIDLPDELLLDLFKEVKELVENSDLSEEELIKKIKELARIYKSEGEIEEL
B5: LC3A_28_1097 (protein)
chain: SALEKQLAAALAEVKAAAAAGEPVTVTITVTDEATEEDIELLKETLKEMAEIGKTLPSLTVIINLSGKKAQEKATIISEFADELEKKYPNLTVIIALDED
B6: LC3A_78_2079 (protein)
chain: MKVAIIAHEESAKELAEEEKKKLTDADEVVVGPISELEELVEKYKDADEIIISIHADTLDKVDAAVEKVKEILSDYNISEIIEYDEETGHYTGHIWAEKK
B7: LC3A_28_718 (protein)
chain: SALEKSIKEALEKAKEAAEKGEEVVIEIKVPGDATEEDIEKVIKTLEEIAEILKDLPSQSIIIDVDGGVKQEYIDKLADKAEEIEKKYPNVTVIIALDEE
B8: LC3A_28_1296 (protein)
chain: SALKEQLDKVLEEAKKAAERGEPVVLTIKVPGDANEEDIDYLIEKLKEIAEVLKDVPGSAIIIDVDAKLKQEHLDKIMEAAEEIEEKYPNVTVIIALEEP
B9: LC3A_17_570 (protein)
chain: SAEIEALVREAEAALRRAEAFAATIDPAAAAEIAALLARVREAAATLSDLEIARVIAEAMDRASRILDSLEDKDPDAASLLSMEMEGVAVEAESLALKLE
B10: LC3A_28_953 (protein)
chain: TSLDDILAAALAEAKAAAAAGEPAVITITVPGDATEEDIEKVIATLKEIAEILKDVKGAAIVVDVEAGVKQEHIDKLADAAEEIEKKYPNITVILALDED
B11: LC3A_free_8_2445 (protein)
chain: KNQELVDKITEKLDELEEEVEKKAKELGLSRLEILELSLLIGSVISEIISATDDSIEKIKEIATKELTELEEEAKKLSEELAKIVKETKEEILKLIEEAE
B12: LC3A_3_1750 (protein)
chain: MEEKLKEARELGEELGFSEETIEAFLKVVELLLERGFEEAVEVLLELLEEQKDLPDEILLAMLEDIERVIETEDLNEEEVIERIREEFRTARNEAEIEEL
B13: LC3A_28_656 (protein)
chain: MSIEEIIEEALKKAEEAKEKGEPAVITITVPGSANEEDIELVIEAMEKIAEMLKDIEGSAIIIDLTGNLKEEHRNLLIDKGEELEKKYPNVTVIIAEDEE
B14: LC3A_45_2006 (protein)
chain: MYLATVDVLVPREKAEEAVRVARETARRLEAEHAGKVRVDLERLEESYEASKDEEEVYLEVEIYAETEELALDLADELVDALEEALGDSVAAIISVKEVP
B15: LC3A_147_406 (protein)
chain: YRLEIDIDILHKGKEELVEELAEEIKELLEEMGLEVEIEIEHEKIDENTDYSHIKITVEAETKEEAEEAANKILDLIDEFEEKNKDEILGSLISYEIEEL
B16: LC3A_3_1697 (protein)
chain: MEEILKEAREIAEKLGLSEETIEAILEALKALLEKGYEEAAKTLLELLKEAKDLSDEIVKDFAEDVKRVAEEEDLSEEEVIKRIKELYEIAKNEQEIEEL
B17: LC3A_147_438 (protein)
chain: WKAEVDVDILTKNAEEEVLAAFKALADELKAQGYTVTLDIEVEKLENGETYIHVTITVDAPTEADAKAAADYVVDRIEELEEKLKDKILGSIISVDISKK
B18: LC3A_141_354 (protein)
chain: MEEKKTYTIEAETPEEAIEKVEKVKEEIKKLMKEKGYKEVKITVTIKTKNKETGEEETETINETVTPENIDLVFDSIIISVASAALKGDVTTTIEATLIK
B19: LC3A_free_46_2359 (protein)
chain: MEIDIDLLAKGKSEEEVKEIAERLREGIEEIAEEEGVEVEIEVEIEKDEEGDYFIDIEIEVDAPTPEKARRFSSRVSELVDELSLEEGLAAIISIEEDEP
B20: LC3A_3_1669 (protein)
chain: MEEIEKLLEAMDAAKTADEKLKYLREAAEKLFELYGFEEEKEIVTENLEKLFSQDDEFKEEAVEELREELERVIEEGPEEIPRLVELARTLANESEIEEL
B21: LC3A_3_1783 (protein)
chain: MEERIEELLRELREAGKSEETIEAVRRALEELRERGYEEALEVFVEETRELLDLPDEILLDFAREVLDLVLNEDLSEEELTERIRELARLARLEAEIEEL
B22: LC3A_free_46_2415 (protein)
chain: WRVEVEVWTRAAPREEIEALVERLTEGAREIAEKHGAEVEIEVEFFENEDGTWSALIRITVRVEDRETAERIAQELLDLIDELDDETGLIGLISVDVEEE
B23: LC3A_3_1760 (protein)
chain: MEEFIEEAREELREAGADEELIEIAERALRLLLERGLEETAREFVETLLELLKKSKELALDLARDVLELLETSTLSPEELAKEVRSLINAALAESEIEEL
B24: LC3A_102_127 (protein)
chain: EVEKLKKELLEKVKKEVEKLLEKDKSLSEEEKKKILELAEKLAEAKLENAEIEIQHGFVDIYLEDKAIELQEELEKIDKELAKKINEIIEKGVEEFRKKL
B25: LC3A_28_690 (protein)
chain: NKIEELKKKAEEILEKAAANGEEAFIEINFDEPITPEEAKELMDELEKYIKKYKLPKVDIVINILSPEQTQETIDTLMDEAERLEKKIPNVTVIIALPED
B26: LC3A_3_1579 (protein)
chain: SSSFIEEAEEKLRAAGLSEEVIEKAREVLEALLEKGWVEEAKLVVEGLLRLKDAPTELLLEALEEILEVAKDESLSKEEALEKIKEILSTAESEAEIIEL
B27: LC3A_free_46_2434 (protein)
chain: VKVKIDVSLLHEDEEVLKKAVEELKKKFEEIAKKYGAKLEIKVEFSKDEDGYHFADIKITAEVDTLEKAEKIANEMIKTTDEIVEKYDVSSIISVEIEVE
B28: LC3A_28_661 (protein)
chain: SATRASIEAALKAAKEAKAAGEPAVITLKITGDATQEDIDAAIAAMEEIAELLKDIPGSAIIIDLDGDVAQEHRDALIDKAEELEKKYPNVTVIIALEEV
B29: LC3A_17_563 (protein)
chain: MEELKKEIEELIKELEELIKILAKEDPEAAKKVQKLLEKAKKALKAGDLKEAAKYLAEAFRLAADAFAKLDEEKNGKYANEEMLANGLELRALGLIEKLE

molecular target: MAP1LC3A, Q9H492; test: median log2 fold change of GCK-ALFA target abundance (FLAG IP / Myc IP barcode read proportion) (log2 ratio); each designed protein is fused to an ALFA-tag nanobody in HEK293 cells to bring the named protein to FLAG-tagged glucokinase (GCK); Myc marks an untargeted standard; higher = target protein stabilised (more abundant); conditions: target protein: 3xFLAG-MCP-GCK-ALFA reporter; HEK293 landing pad (RPLP)
Procedure: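 LABEL-seq trans screen in HEK293 landing-pad cells. Each de novo designed 100-aa effector handle, binding the indicated effector (E3 ligase, DUB or autophagy protein), is fused to a constant NbALFA target handle and induced with 2 ug/mL doxycycline. A FLAG-MCP-GCK-ALFA target and a Myc-MCP standard reporter were transfected, and after 48 h circRNA barcodes were recovered by anti-FLAG and anti-Myc IP and sequenced. The value is the median across barcodes (at least 3 per design) of log2(FLAG/Myc read-proportion ratio), with the two transfection replicates pooled. Negative values mean degradation and positive values mean stabilisation of the target.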

**Q.** With B1 as the binder, how does the “median log2 fold change” value read?
**A.** -0.157

**Q.** With B2 as the binder, how does the “median log2 fold change” value read?
**A.** -0.158

**Q.** B3 was tested. Which “median log2 fold change” value did it give?
**A.** -0.357

**Q.** Which “median log2 fold change” value does the source give for B4 here?
**A.** 0.395

**Q.** How did the “median log2 fold change” value turn out when B5 was run?
**A.** 0.29

**Q.** Which “median log2 fold change” value does the source give for B6 here?
**A.** 0.126

**Q.** With B7 as the binder, how does the “median log2 fold change” value read?
**A.** 0.323

**Q.** For B8, which “median log2 fold change” value is on record?
**A.** -0.0615

**Q.** How did the “median log2 fold change” value turn out when B9 was run?
**A.** 0.292

**Q.** B10 was tested. Which “median log2 fold change” value did it give?
**A.** -0.0309

**Q.** For B11, which “median log2 fold change” value is on record?
**A.** 0.116

**Q.** B12 was tested. Which “median log2 fold change” value did it give?
**A.** 0.136

**Q.** B13 was tested. Which “median log2 fold change” value did it give?
**A.** 0.385

**Q.** For B14, which “median log2 fold change” value is on record?
**A.** -0.115

**Q.** Which “median log2 fold change” value does the source give for B15 here?
**A.** -0.22

**Q.** Which “median log2 fold change” value does the source give for B16 here?
**A.** 0.273

**Q.** Which “median log2 fold change” value does the source give for B17 here?
**A.** -0.15

**Q.** With B18 as the binder, how does the “median log2 fold change” value read?
**A.** 0.207

**Q.** B19 was tested. Which “median log2 fold change” value did it give?
**A.** -0.226

**Q.** Which “median log2 fold change” value does the source give for B20 here?
**A.** 0.072

**Q.** With B21 as the binder, how does the “median log2 fold change” value read?
**A.** 0.184

**Q.** How did the “median log2 fold change” value turn out when B22 was run?
**A.** -0.11

**Q.** Which “median log2 fold change” value does the source give for B23 here?
**A.** 0.157

**Q.** How did the “median log2 fold change” value turn out when B24 was run?
**A.** -0.519

**Q.** B25 was tested. Which “median log2 fold change” value did it give?
**A.** 0.316

**Q.** How did the “median log2 fold change” value turn out when B26 was run?
**A.** 0.242

**Q.** Which “median log2 fold change” value does the source give for B27 here?
**A.** 0.167

**Q.** For B28, which “median log2 fold change” value is on record?
**A.** -0.185

**Q.** For B29, which “median log2 fold change” value is on record?
**A.** -0.0312
